By IC50 is meant the dose at which the fit gives 50% viability; where the fit passes the top or lowest dose, that dose stands as a limit. AUC, from the same fit, is the share of area under the viability curve across the 256-fold dose range; it is 1 without any effect and falls as sensitivity rises. For part of these data: Any top dose called inferred was calculated from the reported fits.
Tests used:
Assay in all cases: Viability of human cancer cell lines after 72 h of drug (GDSC screen)
TG101348 = compound: Cc1cnc(Nc2ccc(OCCN3CCCC3)cc2)nc1Nc1cccc(S(=O)(=O)NC(C)(C)C)c1 [TG101348]; details: top dose 10.24 µM
Description: (§1)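 Human cancer cell lines in 384-well plates, medium with 10% serum, drug for 72 h over a 256-fold dose range (nine 2-fold or five 4-fold steps up to the top dose). Adherent lines were fixed and stained with the nucleic acid dye Syto60, suspension lines read with resazurin; signal relative to control wells, capped at 0 and 100%. One two-parameter sigmoid per drug and line, fitted in a mixed model over all curves with the slope shared within a line.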

BMX-IN-1 (QL-XII-61) = compound: C=CC(=O)Nc1cc(-n2c(=O)ccc3cnc4ccc(-c5ccc(NS(C)(=O)=O)cc5)cc4c32)ccc1C [BMX-IN-1 (QL-XII-61)]; details: top dose 10 µM; top dose inferred
Description: as §1

UNC1215 = compound: O=C(c1ccc(C(=O)N2CCC(N3CCCC3)CC2)c(Nc2ccccc2)c1)N1CCC(N2CCCC2)CC1 [UNC1215]; details: top dose 1 µM; top dose inferred
Description: as §1

17-AAG = compound: C=CCNC1=C2C[C@@H](C)C[C@H](OC)[C@H](O)[C@@H](C)/C=C(\C)[C@H](OC(N)=O)[C@@H](OC)/C=C\C=C(/C)C(=O)NC(=CC1=O)C2=O [17-AAG]; details: top dose 1 µM
Description: as §1

BIX02189 = compound: CN(C)Cc1cccc(N=C(c2ccccc2)c2c(O)[nH]c3cc(C(=O)N(C)C)ccc23)c1 [BIX02189]; details: top dose 20 µM; top dose inferred
Description: as §1

CCT018159 = compound: CCc1cc(-c2n[nH]c(C)c2-c2ccc3c(c2)OCCO3)c(O)cc1O [CCT018159]; details: top dose 10 µM; top dose inferred
Description: as §1

OSI-027 = compound: COc1cccc2cc(-c3nc([C@H]4CC[C@H](C(=O)O)CC4)n4ncnc(N)c34)[nH]c12 [OSI-027]; details: top dose 20 µM
Description: as §1

Vismodegib = compound: CS(=O)(=O)c1ccc(C(=O)Nc2ccc(Cl)c(-c3ccccn3)c2)c(Cl)c1 [Vismodegib]; details: top dose 10 µM; top dose inferred
Description: as §1

VX-11e = compound: Cc1cnc(Nc2ccc(F)cc2Cl)nc1-c1c[nH]c(C(=O)N[C@H](CO)c2cccc(Cl)c2)c1 [VX-11e]; details: top dose 5.12 µM; top dose inferred
Description: as §1

Dimethyloxalylglycine = compound: COC(=O)CNC(=O)C(=O)OC [Dimethyloxalylglycine]; details: top dose 4000 µM; top dose inferred
Description: as §1

Cell Line	AUC (TG101348)	IC50 (TG101348) [µM]	AUC (BMX-IN-1 (QL-XII-61))	IC50 (BMX-IN-1 (QL-XII-61)) [µM]	AUC (UNC1215)	IC50 (UNC1215) [µM]	AUC (17-AAG)	IC50 (17-AAG) [µM]	AUC (BIX02189)	IC50 (BIX02189) [µM]	AUC (CCT018159)	IC50 (CCT018159) [µM]	AUC (OSI-027)	IC50 (OSI-027) [µM]	AUC (Vismodegib)	IC50 (Vismodegib) [µM]	AUC (VX-11e)	IC50 (VX-11e) [µM]	AUC (Dimethyloxalylglycine)	IC50 (Dimethyloxalylglycine) [µM]
D-566MG (glioma, adherent)	0.766	3.73	0.952	> 10	0.984	> 1	0.378	0.029	0.939	> 20	0.788	4.34	0.383	0.597	0.936	> 10	0.895	> 5.12	–	–
EMC-BAC-1 (lung adenocarcinoma, adherent)	0.642	1.68	0.912	> 10	0.982	> 1	0.58	0.107	0.954	> 20	0.948	> 10	0.687	4.52	0.973	> 10	0.861	> 5.12	–	–
YH-13 (glioma, adherent)	0.858	9.23	0.95	> 10	0.985	> 1	0.5	0.0626	0.878	> 20	0.918	> 10	0.653	3.41	0.971	> 10	0.986	> 5.12	–	–
PEO1 (ovary, adherent)	0.987	> 10.2	0.919	> 10	0.985	> 1	0.757	0.358	0.946	> 20	0.928	> 10	0.981	> 20	0.987	> 10	0.902	> 5.12	–	–
OVCA433 (ovary, adherent)	0.888	> 10.2	0.575	1.03	0.975	> 1	0.525	0.0738	0.957	> 20	0.913	> 10	0.791	10.1	0.985	> 10	0.979	> 5.12	–	–
OC-314 (ovary, adherent)	0.826	5.05	0.973	> 10	0.983	> 1	0.676	0.179	0.942	> 20	0.83	5.08	0.35	0.515	0.988	> 10	0.976	> 5.12	–	–
RCC-JF (kidney, adherent)	0.695	2.43	0.97	> 10	0.981	> 1	0.492	0.0593	0.903	> 20	0.891	> 10	0.267	0.246	0.967	> 10	0.925	> 5.12	–	–
RCC-MF (kidney, adherent)	0.734	3.7	0.965	> 10	0.975	> 1	0.852	> 1	0.895	> 20	0.98	> 10	0.153	< 0.0781	0.952	> 10	0.91	> 5.12	–	–
SK-MEL-5 (melanoma, adherent)	0.903	> 10.2	0.971	> 10	0.977	> 1	0.836	0.888	0.982	> 20	0.975	> 10	0.509	1.33	0.97	> 10	0.97	> 5.12	–	–
HSC-2 (head and neck, adherent)	0.902	> 10.2	0.983	> 10	0.967	> 1	0.708	0.229	0.978	> 20	–	–	0.871	16.4	0.987	> 10	0.978	> 5.12	0.617	509
RCC-AB (kidney, adherent)	0.715	3.18	0.978	> 10	0.978	> 1	0.849	> 1	0.885	> 20	0.954	> 10	0.176	0.092	0.973	> 10	0.855	> 5.12	–	–
Hey (ovary, adherent)	0.851	7.16	0.939	> 10	0.986	> 1	0.387	0.0312	0.946	> 20	0.823	5.44	0.331	0.435	0.984	> 10	0.838	3.19	–	–
CADO-ES1 (Ewing sarcoma, suspension)	0.863	9.09	0.957	> 10	0.984	> 1	0.988	> 1	0.891	> 20	0.983	> 10	0.167	0.118	0.976	> 10	0.988	> 5.12	–	–
OACp4C (oesophagus, adherent)	0.645	1.75	0.951	> 10	0.974	> 1	0.864	> 1	0.829	16.1	0.912	> 10	0.415	0.698	0.96	> 10	0.673	1.07	–	–
SNU-81 (large intestine, adherent)	0.915	> 10.2	0.88	> 10	0.979	> 1	0.873	> 1	0.98	> 20	0.931	> 10	0.329	0.352	0.982	> 10	0.923	> 5.12	–	–
SNU-407 (large intestine, adherent)	0.755	4.02	0.89	> 10	0.981	> 1	0.899	> 1	0.879	> 20	0.903	> 10	0.524	1.47	0.983	> 10	0.742	1.8	–	–
EMC-BAC-2 (lung adenocarcinoma, adherent)	0.68	2.26	0.94	> 10	0.976	> 1	0.573	0.103	0.966	> 20	0.951	> 10	0.404	0.65	0.982	> 10	0.978	> 5.12	–	–
KYAE-1 (oesophagus, suspension)	0.745	3.52	0.846	8.53	0.97	> 1	0.473	0.0524	0.912	> 20	0.921	> 10	0.165	0.103	0.977	> 10	0.92	> 5.12	–	–
OVCA420 (ovary, adherent)	0.969	> 10.2	0.979	> 10	0.975	> 1	0.732	0.365	0.922	> 20	0.974	> 10	0.898	> 20	0.982	> 10	0.927	> 5.12	–	–
OV-56 (ovary, adherent)	0.949	> 10.2	0.979	> 10	0.988	> 1	0.603	0.118	0.975	> 20	0.92	> 10	0.728	5.38	0.961	> 10	0.98	> 5.12	–	–
JHOS-2 (ovary, adherent)	0.962	> 10.2	0.981	> 10	0.975	> 1	0.842	0.882	0.871	> 20	0.964	> 10	0.74	6.92	0.981	> 10	0.941	> 5.12	–	–
DOV13 (ovary, adherent)	0.984	> 10.2	0.864	> 10	0.979	> 1	0.378	0.0272	0.962	> 20	0.857	> 10	0.816	13.3	0.983	> 10	0.929	> 5.12	–	–
RCC-JW (kidney, adherent)	0.67	1.93	0.678	1.99	0.984	> 1	0.631	0.146	0.957	> 20	0.917	> 10	0.139	0.0888	0.986	> 10	0.986	> 5.12	–	–
D-423MG (glioma, adherent)	0.809	6.83	0.833	8.5	0.976	> 1	0.875	> 1	0.879	> 20	0.852	> 10	0.309	0.32	0.866	> 10	0.965	> 5.12	–	–
OV-17R (ovary, adherent)	0.751	4.64	0.976	> 10	0.978	> 1	0.96	> 1	0.935	> 20	0.981	> 10	0.42	0.691	0.981	> 10	0.953	> 5.12	–	–
UWB1.289 (ovary, adherent)	0.967	> 10.2	0.946	> 10	0.976	> 1	0.963	> 1	0.94	> 20	0.961	> 10	0.64	3.69	0.976	> 10	0.898	> 5.12	–	–
TE-4 (oesophagus, adherent)	0.805	5.13	0.986	> 10	0.985	> 1	0.318	0.0194	0.986	> 20	0.836	6.57	0.8	9.61	0.975	> 10	0.985	> 5.12	–	–
QGP-1 (pancreas, adherent)	0.844	> 10.2	0.977	> 10	0.977	> 1	0.974	> 1	0.902	> 20	0.967	> 10	0.66	4.59	0.938	> 10	0.748	2.64	–	–
OVK-18 (ovary, adherent)	0.985	> 10.2	0.819	6.47	0.983	> 1	0.586	0.111	0.971	> 20	0.917	> 10	0.83	14.5	0.944	> 10	0.906	> 5.12	–	–
